We go through one molecule from patent US6254870, “Thrombopoietin: IL-3 fusion protein” (G. D. Searle & Co., dated 2001).

This test concerns the target human c-mpl-R (human, UniProt P40238). As to the kind of experiment: cell-based or functional assay.

B1: […] c-mpl ligand K(122)E (pMON26451-1) (ligand)
chain: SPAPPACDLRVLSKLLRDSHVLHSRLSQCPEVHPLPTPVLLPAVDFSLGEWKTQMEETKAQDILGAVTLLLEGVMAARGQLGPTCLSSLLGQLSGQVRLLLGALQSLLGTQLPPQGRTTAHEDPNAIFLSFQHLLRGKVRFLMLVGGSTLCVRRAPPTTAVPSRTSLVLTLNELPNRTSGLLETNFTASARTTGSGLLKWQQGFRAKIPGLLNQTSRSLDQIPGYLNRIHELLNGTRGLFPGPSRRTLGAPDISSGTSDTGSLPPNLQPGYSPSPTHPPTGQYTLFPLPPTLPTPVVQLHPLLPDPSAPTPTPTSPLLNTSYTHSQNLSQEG
Take B1: the “TF1 Proliferation Assay: total counts tritiated thymidine incorporation, 10% supernatants” value is 134000 total counts.
